Out of some 230,000 compounds screened, about 3,600 (1.6%) were called active. Inconclusive means that the source gave no clear call. Such entries were picked first, then a sample of the others. Calls follow the shape of the dose curve; as a rule, active = well fitted inhibition curve with a large enough effect (not every such curve was filed as active); inconclusive = small, poorly fitted or top-dose-only effect, or another doubt; inactive = no such curve, though single readings can be large or run the other way. Potencies beside an inconclusive call are fits to weak or partial responses and may not hold up.
These compounds were tested against Lysine-specific demethylase 4E (Homo sapiens) (UniProt B2RXH2) (assay: qHTS Assay for Inhibitors of Human Jumonji Domain Containing 2E (JMJD2E)). Conditions: JMJD2E catalytic domain, FDH-coupled NADH fluorescence (FDH is formaldehyde dehydrogenase); series mostly up to 57.1 µM.
Also: nearly all actives have a fitted effect of over 50% in size.
Potency is read from the fitted curve at half-maximal effect; tags tell the direction and shape of the fitted curve.

Chain of UniProt B2RXH2 (B2RXH2 whole entry, looked up, the tested form may be a part): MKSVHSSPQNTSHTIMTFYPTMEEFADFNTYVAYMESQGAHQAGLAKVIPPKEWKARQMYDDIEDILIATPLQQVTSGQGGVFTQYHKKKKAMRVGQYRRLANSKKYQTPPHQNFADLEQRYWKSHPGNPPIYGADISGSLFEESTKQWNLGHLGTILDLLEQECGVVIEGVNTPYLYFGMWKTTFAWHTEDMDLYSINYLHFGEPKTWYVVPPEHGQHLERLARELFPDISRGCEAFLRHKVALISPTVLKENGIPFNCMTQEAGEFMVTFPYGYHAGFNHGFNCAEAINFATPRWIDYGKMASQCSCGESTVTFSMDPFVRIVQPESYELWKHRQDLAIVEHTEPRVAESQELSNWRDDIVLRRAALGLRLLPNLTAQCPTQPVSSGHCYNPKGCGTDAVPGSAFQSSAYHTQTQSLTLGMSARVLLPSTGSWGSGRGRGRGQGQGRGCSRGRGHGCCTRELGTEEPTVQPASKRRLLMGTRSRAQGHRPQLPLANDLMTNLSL

Row | SMILES | Potency
1 | COc1ccc2c(C(=O)CN3CCC(C)CC3)c[nH]c2c1 | inconclusive: 39.8 µM [inhibitor, single point]
2 | O=C1CC(SCc2nc3ccccc3[nH]2)C(=O)N1c1cccc(F)c1 (stereo unspecified) | inconclusive: 31.6 µM [inhibitor, single point]
3 | COc1cccc(NC(=O)COC(=O)Cc2ccccc2[N+](=O)[O-])c1 | inactive
4 | CC(=O)Nc1ccccc1OCC(=O)c1ccc2c(c1)OCO2 | inactive
5 | CN1CCN(c2nc(N3CCN(CCO)CC3)nc3ccccc23)CC1 | inconclusive: 28.2 µM [inhibitor, partial curve]
6 | CCN(Cc1cc(=O)n2ccsc2n1)Cc1nc2ccccc2c(=O)[nH]1 | inconclusive: 31.6 µM [inhibitor, single point]
7 | Cn1cccc2[nH]c(=O)nc1-2 | inconclusive: 25.1 µM [inhibitor, partial curve]
8 | Cc1ccc(-c2cccc(C(=O)NCCc3ccccc3)n2)c2ccccc12 | inconclusive: 39.8 µM [inhibitor, single point]
9 | CCCCCOC(=O)Cc1c(O)c2ccccc2n(C)c1=O | inconclusive: 31.6 µM [inhibitor, partial curve]
10 | CCOC(=O)c1c(NC(C)=O)sc2c(OCCN(CC)CC)c(Br)ccc12 | inconclusive: 6.31 µM [inhibitor, single point]
11 | C=CCSC1=C(C#N)C(c2ccccc2Cl)CC(=O)N1 (stereo unspecified) | inactive
12 | COC(=O)COc1ccc(NC(=O)C2CCCO2)cc1 (stereo unspecified) | inactive
13 | Cc1cc(NC(=O)c2cc(-c3ccco3)on2)n(-c2ccccc2)n1 | inconclusive: 35.5 µM [inhibitor, single point]
14 | c1cnc(NC2CCCCCC2)nc1 | inconclusive: 39.8 µM [inhibitor, single point]
15 | COC(=O)Cc1cn(-c2ncc(C(F)(F)F)cc2Cl)c2ccccc12 | inactive
16 | CCn1c2ccccc2c2cc(NC(=O)c3cc(OC)c(OC)c(OC)c3)ccc21 | inconclusive: 35.5 µM [inhibitor, single point]
17 | CCCCNC(=O)C(c1ccc(OCC(=O)OC)c(C(=O)OC)c1)N(CCc1ccccn1)C(=O)CCCCCN1C(=O)NC(c2ccc(-c3ccccc3)cc2)C(C(=O)OCc2ccccc2)=C1C (stereo unspecified) | inactive
18 | CCOC(=O)CNc1c(-c2ccc(O)cc2)nc2ccc(Cl)cn12 | inconclusive: 31.6 µM [inhibitor, single point]
19 | Cc1cc(-c2ccco2)c(C#N)c2nc3ccccc3n12 | inconclusive: 25.1 µM [inhibitor, partial curve]
20 | c1coc(-c2nnc(SCc3cn4ccccc4n3)o2)c1 | inactive
21 | O=C(CCl)Nc1cccn2ncnc12 | inconclusive: 39.8 µM [inhibitor, single point]
22 | Cc1ccccc1Cn1c(O)c(N=NC(=S)Nc2ccccc2F)c2ccccc21 | inactive
23 | Cc1ccc(S(=O)(=O)N2CCOCC2)cc1NC(=O)COC(=O)C1COc2ccccc2O1 (stereo unspecified) | inconclusive: 39.8 µM [inhibitor, single point]

Row | SMILES | Potency
24 | CCCc1cc(=O)oc2cc(Oc3ncccn3)ccc12 | inconclusive: 28.2 µM [inhibitor, partial curve]
25 | Clc1ccc2nc(-c3ccc(Br)s3)cn2c1 | inconclusive: 28.2 µM [inhibitor, single point]
26 | C=CCn1c(O)c(C(CC)=Nc2ccccc2NC(=O)CC)c(=O)[nH]c1=O | inactive
27 | COc1ccc(Cl)cc1NC(=O)CCc1nc(-c2ccccc2F)no1 | inactive
28 | Cc1ccccc1-n1nc(C(=O)O)cc1-c1ccccc1 | inactive
29 | CCOc1ccccc1-c1nc(C(N)=O)c2[nH]c(=O)n(-c3ccc(F)cc3)c2n1 | inconclusive: 35.5 µM [inhibitor, single point]
30 | CCCCC1=CC2=C(c3ccco3)C(=O)C(C)(OC(=O)c3ccc(OC)cc3)C(=O)C2=CN1CC1CC1 (stereo unspecified) | inconclusive: 39.8 µM [inhibitor, single point]
31 | CCOC(=O)c1nn(-c2cccc(Cl)c2)c2nc(Nc3ccccc3)cc(=O)n12 | inconclusive: 28.2 µM [inhibitor, single point]
32 | O=C(Cn1nc(-c2ccccc2)ccc1=O)Nc1ccc(NC(=O)c2ccccn2)cc1 | inconclusive: 28.2 µM [inhibitor, partial curve]
33 | COc1ccc(N2C(=O)C3CCCN3C2c2ccc(C)cc2)cc1 (stereo unspecified) | inactive
34 | O=c1[nH]c(Nc2ccc3c(c2)OCCO3)nnc1Cc1ccccc1 | inactive
35 | COc1ccc(/C=C/C(=O)OCC(=O)Nc2cccc(Oc3ccccc3)c2)c(OC)c1 | inconclusive: 39.8 µM [inhibitor, single point]
36 | CC(O)CNCCOc1cccc(Oc2ccccc2)c1 (stereo unspecified) | inconclusive: 39.8 µM [inhibitor, single point]
37 | CC(Oc1ccc(Br)cc1)c1nc2c3ccccc3nc(=S)n2[nH]1 (stereo unspecified) | inactive
38 | CCc1ccccc1NS(=O)(=O)c1ccc2[nH]cc(C(=O)NCC3CCCO3)c(=O)c2c1 (stereo unspecified) | inconclusive: 11.2 µM [inhibitor, partial curve, poor fit]
39 | O=C(COC(=O)C1CCCCC1)Nc1ccc(S(=O)(=O)N2CCOCC2)cc1 | inactive
40 | COC(=O)c1ccc(CN2CCCC(CCC(=O)NCc3ccc(C)o3)C2)cc1 (stereo unspecified) | inactive
41 | CCOC(=O)c1c(NC(=O)CS(=O)(=O)c2cn(CC)c3ccccc23)sc2c1CCCC2 | inconclusive: 31.6 µM [inhibitor, single point]
42 | COc1ccc2cc(/C(C)=N/NC(=S)Nc3cc(S(=O)(=O)N4CCOCC4)ccc3N3CCOCC3)ccc2c1 | inconclusive: 28.2 µM [inhibitor, partial curve]
43 | COc1ccc2cc(CN(CCO)C(=O)c3ccccc3F)c(=O)[nH]c2c1 | inconclusive: 39.8 µM [inhibitor, single point]
44 | COc1cc(CNc2ccc(N3CCN(C(C)=O)CC3)cc2)ccc1OCc1ccccc1 | active: 15.8 µM
45 | Cc1cc(NC(=O)COc2ccccc2)n(-c2ccccc2)n1 | inactive
46 | CCOc1ccc2nc(SCC(=O)Nc3cc4c(cc3C(C)=O)OCO4)[nH]c2c1 | inactive
